This note sets out measurements from the supplement of paper PMC10928670.

MIC of N. gonorrhoeae strains collected 1971-2005, agar dilution (CLSI M07); ranges 0.03-64 mg/L (penicillin, azithromycin), 0.015-1 (cefixime, ceftriaxone), 0.5-256 (spectinomycin); higher = less susceptible. No active / inactive call per row; the paper counts cefixime and ceftriaxone above 0.25 and azithromycin above 1 mg/L as non-susceptible. The source says 'penicillin'; penicillin G is assumed. Isolates are numbered anew.

What all share (test): Agar dilution by CLSI M07.
Compound in assay [1]: CO/N=C(\C(=O)N[C@@H]1C(=O)N2C(C(=O)O)=C(CSc3nc(=O)c(O)nn3C)CS[C@H]12)c1csc(N)n1 [ceftriaxone]
Compound in assay [2]: CC[C@H]1OC(=O)[C@H](C)[C@@H](O[C@H]2C[C@@](C)(OC)[C@@H](O)[C@H](C)O2)[C@H](C)[C@@H](O[C@@H]2O[C@H](C)C[C@H](N(C)C)[C@H]2O)[C@](C)(O)C[C@@H](C)CN(C)[C@H](C)[C@@H](O)[C@]1(C)O [azithromycin]
Compound in assay [3]: CN[C@@H]1[C@H](O)[C@H](NC)[C@H]2O[C@@]3(O)C(=O)C[C@@H](C)O[C@H]3O[C@@H]2[C@H]1O [spectinomycin]
Compound in assay [4]: C=CC1=C(C(=O)O)N2C(=O)[C@@H](NC(=O)/C(=N\OCC(=O)O)c3csc(N)n3)[C@H]2SC1 [cefixime]
Compound in assay [5]: CC1(C)S[C@@H]2[C@H](NC(=O)Cc3ccccc3)C(=O)N2[C@H]1C(=O)O [penicillin G]

One may read the MIC as the lowest concentration that inhibits growth of the organism.

For “Neisseria gonorrhoeae isolate 191 (GyrA: Wild type, ParC: Wild type, mtrR: G45D, penA: Type XXII NonMosaic, A517G, ponA: Wild type, porB: G120D)”, the MIC is no more than 0.015 mg/L in assay [1]; 0.06 mg/L in assay [2]; 16 mg/L in assay [3]; no more than 0.015 mg/L in assay [4]; 0.25 mg/L in assay [5].

Take “Neisseria gonorrhoeae isolate 134 (GyrA: Wild type, ParC: Wild type, mtrR: -35A Del, G45D, penA: WT NonMosaic, ponA: L421P, porB: G120D, A121D)”: the MIC is no more than 0.015 mg/L in assay [1]; 0.5 mg/L in assay [2]; 16 mg/L in assay [3]; no more than 0.015 mg/L in assay [4]; 1 mg/L in assay [5].

Regarding “Neisseria gonorrhoeae isolate 165 (GyrA: Wild type, ParC: Wild type, mtrR: Wild type, penA: Type II NonMosaic, A517G, ponA: Wild type, porB: G120N, A121D)”, the MIC is no more than 0.015 mg/L in assay [1]; 0.25 mg/L in assay [2]; 16 mg/L in assay [3]; no more than 0.015 mg/L in assay [4]; 32 mg/L in assay [5].

Regarding “Neisseria gonorrhoeae isolate 36 (GyrA: Wild type, ParC: Wild type, mtrR: -35A Del, G45D, penA: Type II NonMosaic, A517G, ponA: L421P, porB: G120K, A121D)”, the MIC is no more than 0.015 mg/L in assay [1]; 0.25 mg/L in assay [2]; 16 mg/L in assay [3]; no more than 0.015 mg/L in assay [4]; greater than 64 mg/L in assay [5].

For “Neisseria gonorrhoeae isolate 82 (GyrA: Wild type, ParC: Wild type, mtrR: Wild type, penA: WT NonMosaic, ponA: Wild type, porB: Wild type)”, the minimum inhibitory concentration (MIC) in assay [1] was no more than 0.015 mg/L; in assay [2], 0.06 mg/L; in assay [3], 16 mg/L; in assay [4], no more than 0.015 mg/L; in assay [5], no more than 0.03 mg/L.

On to “Neisseria gonorrhoeae isolate 140 (GyrA: Wild type, ParC: Wild type, mtrR: -35A Del, G45D, penA: Type XII NonMosaic, A517G, ponA: L421P, porB: G120K, A121D)”, for which the MIC was no more than 0.015 mg/L in assay [1]; 0.25 mg/L in assay [2]; 16 mg/L in assay [3]; no more than 0.015 mg/L in assay [4]; 0.5 mg/L in assay [5].

“Neisseria gonorrhoeae isolate 13 (GyrA: Wild type, ParC: Wild type, mtrR: -35A Del, G45D, penA: Type II NonMosaic, A517G, ponA: Wild type, porB: G120D, A121D)”: the MIC was no more than 0.015 mg/L in assay [1]; 0.06 mg/L in assay [2]; 8 mg/L in assay [3]; no more than 0.015 mg/L in assay [4]; 0.125 mg/L in assay [5].

Regarding “Neisseria gonorrhoeae isolate 76 (GyrA: Wild type, ParC: Wild type, mtrR: -35A Del, G45D, penA: Type II NonMosaic, A517G, ponA: L421P, porB: G120K, A121D)”, the MIC in assay [1] was 0.03 mg/L; in assay [2], 0.125 mg/L; in assay [3], 32 mg/L; in assay [4], 0.03 mg/L; in assay [5], greater than 64 mg/L.

Take “Neisseria gonorrhoeae isolate 238 (GyrA: Wild type, ParC: Wild type, mtrR: -35A Del, penA: Type XXII NonMosaic, A517G, ponA: L421P, porB: G120K, A121D)”: the MIC was 0.03 mg/L in assay [1]; 0.25 mg/L in assay [2]; 16 mg/L in assay [3]; 0.03 mg/L in assay [4]; greater than 64 mg/L in assay [5].

Turning to “Neisseria gonorrhoeae isolate 226 (GyrA: Wild type, ParC: Wild type, mtrR: Wild type, penA: Type I NonMosaic, ponA: Wild type, porB: Wild type)”, the MIC in assay [1] is no more than 0.015 mg/L; in assay [2], no more than 0.03 mg/L; in assay [3], 16 mg/L; in assay [4] it was no more than 0.015 mg/L; in assay [5], 0.06 mg/L.

Regarding “Neisseria gonorrhoeae isolate 154 (GyrA: Wild type, ParC: Wild type, mtrR: Wild type, penA: Type I NonMosaic, ponA: Wild type, porB: Wild type)”, the MIC in assay [1] is no more than 0.015 mg/L; in assay [2], 0.125 mg/L; in assay [3], 32 mg/L; in assay [4] it was no more than 0.015 mg/L; in assay [5], 0.06 mg/L.

With “Neisseria gonorrhoeae isolate 34 (GyrA: Wild type, ParC: Wild type, mtrR: G45D, penA: Type I NonMosaic, ponA: Wild type, porB: G120D)”, the MIC was no more than 0.015 mg/L in assay [1]; 0.25 mg/L in assay [2]; 16 mg/L in assay [3]; no more than 0.015 mg/L in assay [4]; 0.125 mg/L in assay [5].

Consider “Neisseria gonorrhoeae isolate 1 (GyrA: Wild type, ParC: Wild type, mtrR: G45D, penA: Type IV NonMosaic, A517G, G543S, ponA: L421P, porB: G120K, A121D)”, for which the MIC worked out at 0.03 mg/L in assay [1]; 0.125 mg/L in assay [2]; 16 mg/L in assay [3]; 0.03 mg/L in assay [4]; 2 mg/L in assay [5].

As for “Neisseria gonorrhoeae isolate 31 (GyrA: Wild type, ParC: Wild type, mtrR: A39T, penA: Type XXII NonMosaic, A517G, ponA: L421P, porB: porB1a)”, the MIC in assay [1] is no more than 0.015 mg/L; in assay [2], 0.125 mg/L; in assay [3], 16 mg/L; in assay [4], no more than 0.015 mg/L; in assay [5], greater than 64 mg/L.
